According to PubChem BioAssay AID686970 (National Center for Advancing Translational Sciences (NCATS), 2013):
The campaign covered roughly 360,000 compounds. About 6,000 (1.7%) were called active. Inconclusive results, whose numbers are uncertain, are shown with a selection of clear calls. The call rests on the fitted dose curve; in most records, active means well fitted cell-killing curve with a large enough effect; inconclusive means small, poorly fitted or top-dose-only effect, or effect the other way; inactive means flat fitted curve, though single readings scatter. No potency is given beside an inconclusive call; the fits are too rough.
Potency means the concentration at half of the fitted maximal effect; tags describe the fitted curve by direction and shape.

Experiment: qHTS for induction of synthetic lethality in tumor cells producing 2HG: qHTS for the HT-1080-NT fibrosarcoma cell line; further: nearly all actives have a fitted effect of over 55% in size
Conditions: HT-1080-NT fibrosarcoma viability, CellTiter-Glo ATP luminescence, 48 h; activity, negative = less viability: at 46.1 µM (top of the series) unless noted
Text: Unbiased genomic sequencing for 22 glioma genomes found recurrent mutation of IDH1 on chromosome 2q33, a gene encoding the cytosolic isoform of IDH1 associated with the tricarboxylic acid cycle (TCA) that catalyzes the oxidative decarboxylation of isocitrate, yielding alpha-ketoglutarate and CO2 via NADP+ to NADPH conversion. Subsequent studies confirmed the recurrent IDH mutations in up to 70% of secondary gliomas and in 10% of AML cases. In addition, the somatic mutation of cancer-associated IDH1 is a point mutation resulting in various amino-acid substituents at Arginine132 (IDH1 R132), a key residue found in the enzyme's active site that when mutated, results in the loss-of-function in metabolizing isocitrate but confers a gain-of-function to produce the oncometabolite 2-hydroxyglutarate (2HG). This in effect defines IDH1 as an oncogene and provides an extraordinary opportunity to discover chemical probes against mutant IDH1 that may translate into much needed new therapies for glioma and AML patients.
This assay aims to perform a synthetic lethal screen for chemical probes specific for 2HG-producing tumor cells using matched paired cell lines (1) HT-1080-NT fibrosarcoma cell line that overproduces 2HG and (2) HT-1080-IDH1KD cell line which has IDH1 expression knocked-down. Desirable compounds are toxic to the NT fibrosarcoma cells but not to the IDH1KD cell line. The data in this AID corresponds to the results of the qHTS against the HT-1080-NT fibrosarcoma cell line.
[1] Dang L, Jin S, Su SM. IDH mutations in glioma and acute myeloid leukemia. Trends of Mol Med. 2010; 16(9): 387-97.
[2] Dang L et al. Cancer-associated IDH1 mutations produce 2-hydroxyglutarate. Nature. 2010; 465(7300):966.
NIH Molecular Libraries Probe Production Centers Network [MLPCN]
NIH Chemical Genomics Center [NCGC]
Assay Submitter (PI): Lenny Dang Ph.D., Agios Pharmaceuticals
Suspensions of trypsinized HT-1080-NT cells were dispensed into white, tissue culture-treated, solid 1536-well plates at 5uL/well (750 cells/well final concentration) in RPMI medium supplemented with 5% FBS. Plates were incubated at 37 degrees C for 2 hours, after which 23 nL of compounds or DMSO were delivered to each well using a pin tool. Plates were then incubated at 37 degrees C for an additional 48 hours. CellTiter-Glo viability reagent (Promega) was dispensed into wells (2.5uL/well) and incubated at room temperature for 10 minutes. The plates were measured on a PerkinElmer ViewLux plate reader for luminescent signal (clear filter, 1 sec exp). DMSO-treated control wells and media-only (no cells) control wells were used to normalize %Activity of identified toxic compounds; DMSO-treated wells corresponded to 0%Activity (100% viability), while media-only controls were used to normalize 100%Activity (0% viability).
Concentration-response curves were fitted to the signals arising from the resulting luminescence. The concentration-effect curves were then classified based on curve quality (r2), response magnitude and degree of measured activity, and compounds were subsequently categorized based on their curve class.
With Cc1nn(Cc2c(Cl)cccc2Cl)c(C)c1NC(=O)c1sc2ccccc2c1Cl the Potency was inconclusive [cytotoxic, partial curve].
For CC1CCCN(c2nc3c(c(=O)[nH]c(=O)n3C)n2CCSc2nc3ccccc3o2)C1 (stereo not drawn), the Potency was “inactive”.
For CCn1c(=O)c([N+](=O)[O-])c(Cl)c2ccccc21, the Potency was inconclusive [cytotoxic, full curve].
With CC(=O)C1=C(O)C(=O)N(c2ccc(S(=O)(=O)Nc3nccs3)cc2)C1c1ccc(F)cc1 (stereo not drawn) the Potency was inconclusive [rising, partial curve].
In the case of COc1ccc(CNC(=O)c2cc(S(=O)(=O)N3CCCCC3)ccc2Cl)cc1OC, the Potency is reported as active: 9.2 µM.
With Oc1ccc(Br)cc1-c1nc2cnccn2c1NC1CCCCC1 the Potency was inconclusive [cytotoxic, single point].
For N#C/C(=C/c1cccc([N+](=O)[O-])c1)c1nnc2n1CCCCC2, the Potency was inconclusive [cytotoxic, partial curve].
With COc1ccc(C(C(=O)NC2CCCC2)N(C(=O)c2snc(C(N)=O)c2N)c2cccc(O)c2)cc1 (stereo not drawn) the Potency was inconclusive [cytotoxic, single point].
For Cc1ccc(NS(=O)(=O)c2ccc(-n3cccn3)cc2)c(Br)c1, the Potency was “inactive”.
In the case of COc1cccc(NC(=O)N(CCCN2CCOCC2)C(C)c2cc3ccccc3o2)c1 (stereo not drawn), the Potency is reported as active: 15.8 µM.
In the case of COc1ccccc1C(c1nnnn1CCc1ccccc1)N1CCCCCC1 (stereo not drawn), the Potency is reported as inconclusive [cytotoxic, single point].
With Cc1nn(C)c(C)c1CNC(=O)c1nn2c(c1Cl)NC(c1cccs1)CC2C(F)(F)F (stereo not drawn) the Potency was inconclusive [cytotoxic, single point].
In the case of COc1cc(C(=O)Oc2cccc(Nc3ncnc4ccccc34)c2)cc(OC)c1OC, the Potency is reported as inconclusive [cytotoxic, single point].
With C#CCOCCOCCOCCNc1nc(N2CCN(C(=O)C(Cc3cc4ccccc4[nH]3)n3cc(C(N)Cc4ccc(O)cc4)nn3)CC2)nc(N2CCN(C(=O)C(Cc3cc4ccccc4[nH]3)n3cc(C(N)Cc4ccc(O)cc4)nn3)CC2)n1 (stereo not drawn) the Potency was inconclusive [cytotoxic, single point].
With O=C(c1ccc(CNS(=O)(=O)c2ccccc2)cc1)N1CCN(c2ccccn2)CC1 the Potency was “inactive”.
In the case of N#Cc1c(N)n(C2CCCCC2)c2nc3ccccc3nc12, the Potency is reported as inconclusive [cytotoxic, single point].
In the case of CC(C)Cn1c(N)c(C(=O)NCCN2CCOCC2)c2nc3ccccc3nc21, the Potency is reported as “inactive”.
For CN(C)CCNc1ccc(CO)c2oc3ccc(O)cc3c(=O)c12, the Potency was inconclusive [cytotoxic, partial curve].
For O=C(CCN1C(=O)/C(=C\c2cccc(Br)c2)SC1=S)NCCCN1CCOCC1, the Potency was “inactive”.
In the case of COC(=O)CCC(=O)NC(=S)Nc1cc(Cl)ccc1Cl, the Potency is reported as inconclusive [cytotoxic, single point].
With Cc1cccc(C)c1Nc1nnc(SC/C(O)=C(\C#N)c2nc3ccccc3[nH]2)s1 the Potency was “inactive”.
In the case of Cc1cccc(C(C)(C)C)c1OCCn1ccnc1, the Potency is reported as inconclusive [cytotoxic, partial curve].
For C[n+]1nc(Nc2ccccc2)sc1-c1ccc(O)cc1, the Potency was inconclusive [rising, partial curve].
In the case of CCOC(=O)c1[nH]c(C)c(CN(C(C)=O)c2ccc(OCC)cc2)c1C, the Potency is reported as inconclusive [cytotoxic, single point].
For CCOc1ccc2nc(NC3=NC(C)(C)C=C(C)N3)nc(C)c2c1, the Potency was inconclusive [cytotoxic, single point].
With COc1cc(NC(=O)CSc2nnc(C)s2)cc(OC)c1 the Potency was inconclusive [rising, partial curve].
With NCC12CC3CC(C1)CC(c1ccc(Br)cc1)(C3)C2 the Potency was inconclusive [cytotoxic, partial curve].
For COc1cccc(NC(=O)CSc2nnnn2C2CCCC2)c1, the Potency was inconclusive [cytotoxic, full curve].
With Cc1nn(Cc2ccccc2)c(C)c1/C=N/NC(=O)CNc1cccc(C(F)(F)F)c1 the Potency was “inactive”.
In the case of COc1ccc(C2c3ccc4ccccc4c3Oc3ncn(CCO)c(=N)c32)cc1OC (stereo not drawn), the Potency is reported as “inactive”.
With O=C(NCCCO)C(=O)Nc1ccc2c(c1)N(S(=O)(=O)c1cccs1)CCC2 the Potency was “inactive”.
With CCOC(=O)[C@]12CCCC=C1N(Cc1cccc3ccccc13)C(=O)[C@H](CC(=O)NCc1ccc(OC)c(OC)c1)C2 the Potency was inconclusive [cytotoxic, partial curve].
In the case of CNC(=S)N/N=C(\C)c1ccccc1, the Potency is reported as inconclusive [cytotoxic, single point].
In the case of CCOC(=O)c1sc(NC(=O)CC(C)c2ccccc2)nc1C (stereo not drawn), the Potency is reported as inconclusive [cytotoxic, partial curve].
In the case of NCC12CC3CC(C1)CC(c1ccc(Cl)cc1)(C3)C2, the Potency is reported as active: 23.1 µM.
For O=c1c2ccccc2cnn1-c1nc2ccccc2[nH]1, the Potency was active: 3.66 µM.
With CN1CCS/C1=C/C=C1/SC(=S)N(Cc2ccccc2)C1=O the Potency was “inactive”.
In the case of CN(C)c1ccc(CNCCC(Cc2ccccc2)c2ccco2)cc1 (stereo not drawn), the Potency is reported as active: 18.4 µM.
In the case of COc1ccc(C(=O)NC2CC2)cc1OC1CCN(Cc2ccc(NC(C)=O)cc2)CC1, the Potency is reported as “inactive”.
In the case of O=S(=O)(Nc1ccccc1N1CCCCC1)c1ccc(Cl)s1, the Potency is reported as “inactive”.
In the case of COc1cc(-c2nn3c(Cc4ccccc4)nnc3s2)cc(OC)c1OC, the Potency is reported as “inactive”.
With CCOC(=O)C1=C(N)Oc2cc(O)ccc2C1c1cccc([N+](=O)[O-])c1 (stereo not drawn) the Potency was active: 7.31 µM.
With COc1ccc(NC(=O)C(=O)NCCCn2ccnc2)cc1 the Potency was “inactive”.
For CCc1cccc(NC(=O)C2CCN(c3ncnc4sc(C)c(C)c34)CC2)c1, the Potency was inconclusive [cytotoxic, single point].
For CS(=O)(=O)N1CCc2cc(C(=O)Nc3ccc(O)cc3)ccc21, the Potency was “inactive”.
For CN(CC(=O)Nc1ccc(Cl)cc1)CC(=O)Nc1cccc(Br)c1, the Potency was inconclusive [cytotoxic, single point].
For CC(=O)N1CCN(CC(=O)Nc2ccc([N+](=O)[O-])cc2Br)CC1, the Potency was “inactive”.
With CCOC(=O)C1(C)CCCN1C(=O)c1ccc(F)c(Cl)c1 (stereo not drawn) the Potency was “inactive”.
In the case of NC(=O)c1c(-c2ccc(Cl)cc2Cl)csc1NC(=O)Cc1ccccc1, the Potency is reported as inconclusive [cytotoxic, full curve].
For O=C(NCCCO)C(=O)NCC(c1ccc2c(c1)OCO2)N1CCN(c2ccc(F)cc2)CC1 (stereo not drawn), the Potency was “inactive”.
For O=C(Nc1ncc(S(=O)(=O)c2ccc([N+](=O)[O-])cc2)s1)c1cccnc1, the Potency was inconclusive [cytotoxic, partial curve, poor fit].
For COc1ccc(/C(N)=N/OC(=O)Cc2ccc(OC)c(OC)c2)cc1, the Potency was inconclusive [cytotoxic, single point].
For COc1cc(SC)ccc1C(=O)Nc1ccc2ncccc2c1, the Potency was inconclusive [cytotoxic, single point].
With CCOc1ccc(N2CC(C(=O)Nc3ccc4c(c3)OCCO4)CC2=O)cc1 (stereo not drawn) the Potency was “inactive”.
For COC(=O)c1sccc1NC(=S)Nc1cc(OC)ccc1OC, the Potency was inconclusive [rising, single point].
With O=[N+]([O-])c1ccc(O)c(-c2cc(C(F)(F)F)nc(-c3ccccc3)n2)c1 the Potency was active: 2.31 µM.
For O=C(Nc1ccc(OC(F)(F)F)cc1)N1CCN(c2ccnc3cc(Cl)ccc23)CC1, the Potency was inconclusive [cytotoxic, single point].
For COc1ccc(/C=C2\SC(=Nc3ccccc3OC)NC2=O)cc1, the Potency was inconclusive [cytotoxic, partial curve].
For CNC(=O)c1ccc(Nc2nc(-c3ccccc3)nc3ccccc23)cc1, the Potency was active: 18.4 µM.
With CCCC1Oc2ccccc2C(=O)N(CC(=O)c2ccc3c(c2)OCCO3)C1=O (stereo not drawn) the Potency was “inactive”.
With CC(=O)Nc1nc(=O)c2ccccc2s1 the Potency was inconclusive [cytotoxic, single point].
In the case of O=C(Nc1ccn(Cc2c(F)c(F)cc(F)c2F)n1)c1ccc(COc2ccccc2Cl)cc1, the Potency is reported as inconclusive [cytotoxic, single point].
In the case of COc1ccc(C)cc1S(=O)(=O)Nc1cc2c3c(c1)CC(=O)N3CCC2, the Potency is reported as inconclusive [cytotoxic, single point].
For CC(C)CC1NC(=S)N(Cc2ccccc2)C1=O (stereo not drawn), the Potency was inconclusive [cytotoxic, partial curve].
With COc1cccc(-c2oc3c(c2C#CC2(N)CCCCC2)C(O)CCC3)c1 (stereo not drawn) the Potency was active: 16.4 µM.
With CCOC(=O)c1cnc2ccc(OCC)cc2c1NCc1cccnc1 the Potency was inconclusive [cytotoxic, partial curve, poor fit].
For CCOc1ccc(Nc2ccnc3cc(Cl)ccc23)cc1, the Potency was inconclusive [cytotoxic, single point].
With Cc1c(CN(C)C)c2c(n1Cc1ccccc1)C(=O)c1ccc(Br)cc1-2 the Potency was active: 18.4 µM.
In the case of Nc1ncc(Br)cc1S(=O)(=O)Nc1cc(C(F)(F)F)cc(C(F)(F)F)c1, the Potency is reported as active: 18.4 µM.
With O=C(Nc1nc2ccccc2[nH]1)c1cccc(F)c1 the Potency was “inactive”.
With COc1cc(CC(NC(C)=O)C(=O)NC2CCN(C(=O)c3ccc(C)cc3)CC2)cc(OC)c1 (stereo not drawn) the activity, negative = less viability was inconclusive: -12% [cytotoxic].
For CN(C)c1ccc(C(=O)N=c2sccn2C)cc1[N+](=O)[O-], the activity, negative = less viability was inconclusive: 21.9%.
In the case of CCCc1nc(SCC(=O)N2CCc3ccccc3C2)c2ccccc2n1, the Potency is reported as inconclusive [cytotoxic, single point].
